# Experimental data reported in the supplement of paper PMC8728848.
# This is one part of the list.
# B1: ClecSol-Fc (Cryptosporidium parvum) (protein)
# chain: CPEGWISNGEKTRCFKLVTFDRPRTFSHGFKACNDLGGTEVETRRRNGSKETNEYPVTLASVYKLSDEEAIRRTLVEQGDIHKTANGCFVGLRKYAFFRYPPGWYWIDSGSPVSVRDSEINWTSSYNASWLLRFKFPFEKCGFFDIGGLGRRPCWLIDSELSCAVCGTVAYDSGGLNPNKYSELIKQTDEIISKEPKLDLPGYNNLNCTDAWENNLSVGLCQNVSNILDSAWSSYQSSLNFPSINFNWKEDSTNEGGDQVYHNSYLDLPRYKQKKTFYWDQDPGTIPALSDEMKLIGLSAQPTYHPLDRSSSGSFESDSTESGRANEERNDTLEEMIYKQSSDSIEDILVPVTKPIFSDYSSIGRNSGVEEVYSSNVSTISSKGVVFPNTTTSSDNDFTKNNPANSSKHTSTSTTTNTTTTTTRTTTTTTTTTTTTTTTTTTTTETTTTKKSTTATKNTTTT
# What was measured:
# Experiment in all cases: glycan array binding signal (z-score within array); higher = stronger binding
# Details in all cases: glycan notation: IUPAC condensed, linker removed
# [1] = biological target: Fuc(a1-2)Gal6S(b1-3)GlcNAc6S
# Outline: (§1)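 From the Consortium for Functional Glycomics database, 3228 arrays were curated, keeping only those whose protein sequence was available. Binding is given as a within-array Z-score averaged across arrays sharing a protein sequence and across linkers. Negative Z-scores can be read as non-binding.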
# Fuc(a1-2)Gal6S(b1-4)Glc = biological target: Fuc(a1-2)Gal6S(b1-4)Glc
# Outline: as §1
# [2] = biological target: Fuc(a1-2)Gal6S(b1-4)Glc6S
# Outline: as §1
# Fuc(a1-2)[Gal(a1-3)]Gal = biological target: Fuc(a1-2)[Gal(a1-3)]Gal
# Outline: as §1
# [3] = biological target: Fuc(a1-2)[Gal(a1-3)]Gal(b1-3)GalNAc
# Outline: as §1
# [4] = biological target: Fuc(a1-2)[Gal(a1-3)]Gal(b1-3)GalNAc(b1-3)Gal(a1-4)Gal(b1-4)Glc
# Outline: as §1
# [5] = biological target: Fuc(a1-2)[Gal(a1-3)]Gal(b1-3)GlcNAc
# Outline: as §1
# [6] = biological target: Fuc(a1-2)[Gal(a1-3)]Gal(b1-3)GlcNAc(b1-2)Man(a1-3)[Fuc(a1-2)[Gal(a1-3)]Gal(b1-3)GlcNAc(b1-2)Man(a1-6)]Man(b1-4)GlcNAc(b1-4)GlcNAc
# Outline: as §1
# [7] = biological target: Fuc(a1-2)[Gal(a1-3)]Gal(b1-3)GlcNAc(b1-2)Man(a1-3)[Fuc(a1-2)[Gal(a1-3)]Gal(b1-3)GlcNAc(b1-2)Man(a1-6)]Man(b1-4)GlcNAc(b1-4)[Fuc(a1-6)]GlcNAc
# Outline: as §1
# [8] = biological target: Fuc(a1-2)[Gal(a1-3)]Gal(b1-3)GlcNAc(b1-3)GalNAc
# Outline: as §1
# [9] = biological target: Fuc(a1-2)[Gal(a1-3)]Gal(b1-3)GlcNAc(b1-6)GalNAc
# Outline: as §1
# [10] = biological target: Fuc(a1-2)[Gal(a1-3)]Gal(b1-4)Glc
# Outline: as §1
# [11] = biological target: Fuc(a1-2)[Gal(a1-3)]Gal(b1-4)GlcNAc
# Outline: as §1
# [12] = biological target: Fuc(a1-2)[Gal(a1-3)]Gal(b1-4)GlcNAc(b1-2)Man
# Outline: as §1
# [13] = biological target: Fuc(a1-2)[Gal(a1-3)]Gal(b1-4)GlcNAc(b1-2)Man(a1-3)[Fuc(a1-2)[Gal(a1-3)]Gal(b1-4)GlcNAc(b1-2)Man(a1-6)]Man(b1-4)GlcNAc(b1-4)GlcNAc
# Outline: as §1
# [14] = biological target: Fuc(a1-2)[Gal(a1-3)]Gal(b1-4)GlcNAc(b1-2)Man(a1-3)[Fuc(a1-2)[Gal(a1-3)]Gal(b1-4)GlcNAc(b1-2)Man(a1-6)]Man(b1-4)GlcNAc(b1-4)[Fuc(a1-6)]GlcNAc
# Outline: as §1
# [15] = biological target: Fuc(a1-2)[Gal(a1-3)]Gal(b1-4)GlcNAc(b1-3)GalNAc
# Outline: as §1
# [16] = biological target: Fuc(a1-2)[Gal(a1-3)]Gal(b1-4)GlcNAc(b1-3)[Fuc(a1-2)[Gal(a1-3)]Gal(b1-4)GlcNAc(b1-6)]GalNAc
# Outline: as §1
# [17] = biological target: Fuc(a1-2)[Gal(a1-3)]Gal(b1-4)GlcNAc(b1-6)GalNAc
# Outline: as §1
# [18] = biological target: Fuc(a1-2)[Gal(a1-3)]Gal(b1-4)[Fuc(a1-3)]Glc
# Outline: as §1
# [19] = biological target: Fuc(a1-2)[Gal(a1-3)]Gal(b1-4)[Fuc(a1-3)]GlcNAc
# Outline: as §1
# [20] = biological target: Fuc(a1-2)[Gal(a1-3)]Gal(b1-4)[Fuc(a1-3)]GlcNAc(b1-3)GalNAc
# Outline: as §1
# [21] = biological target: Fuc(a1-2)[Gal(a1-4)]Gal(b1-4)GlcNAc
# Outline: as §1
# [22] = biological target: Fuc(a1-2)[GalNAc(a1-3)]Gal
# Outline: as §1
# [23] = biological target: Fuc(a1-2)[GalNAc(a1-3)]Gal(b1-3)GalNAc(a1-3)[Fuc(a1-2)]Gal(b1-4)GlcNAc
# Outline: as §1
# [24] = biological target: Fuc(a1-2)[GalNAc(a1-3)]Gal(b1-3)GalNAc(b1-3)Gal(a1-4)Gal(b1-4)Glc
# Outline: as §1
# [25] = biological target: Fuc(a1-2)[GalNAc(a1-3)]Gal(b1-3)GlcNAc
# Outline: as §1
# [26] = biological target: Fuc(a1-2)[GalNAc(a1-3)]Gal(b1-3)GlcNAc(b1-2)Man(a1-3)[Fuc(a1-2)[GalNAc(a1-3)]Gal(b1-3)GlcNAc(b1-2)Man(a1-6)]Man(b1-4)GlcNAc(b1-4)GlcNAc
# Outline: as §1
# [27] = biological target: Fuc(a1-2)[GalNAc(a1-3)]Gal(b1-3)GlcNAc(b1-2)Man(a1-3)[Fuc(a1-2)[GalNAc(a1-3)]Gal(b1-3)GlcNAc(b1-2)Man(a1-6)]Man(b1-4)GlcNAc(b1-4)[Fuc(a1-6)]GlcNAc
# Outline: as §1
# [28] = biological target: Fuc(a1-2)[GalNAc(a1-3)]Gal(b1-3)GlcNAc(b1-3)GalNAc
# Outline: as §1
# [29] = biological target: Fuc(a1-2)[GalNAc(a1-3)]Gal(b1-3)GlcNAc(b1-6)GalNAc
# Outline: as §1
# [30] = biological target: Fuc(a1-2)[GalNAc(a1-3)]Gal(b1-4)Glc
# Outline: as §1
# [31] = biological target: Fuc(a1-2)[GalNAc(a1-3)]Gal(b1-4)GlcNAc
# Outline: as §1
# [32] = biological target: Fuc(a1-2)[GalNAc(a1-3)]Gal(b1-4)GlcNAc(b1-2)Man
# Outline: as §1
# [33] = biological target: Fuc(a1-2)[GalNAc(a1-3)]Gal(b1-4)GlcNAc(b1-2)Man(a1-3)[Fuc(a1-2)[GalNAc(a1-3)]Gal(b1-4)GlcNAc(b1-2)Man(a1-6)]Man(b1-4)GlcNAc(b1-4)GlcNAc
# Outline: as §1
# [34] = biological target: Fuc(a1-2)[GalNAc(a1-3)]Gal(b1-4)GlcNAc(b1-2)Man(a1-3)[Fuc(a1-2)[GalNAc(a1-3)]Gal(b1-4)GlcNAc(b1-2)Man(a1-6)]Man(b1-4)GlcNAc(b1-4)[Fuc(a1-6)]GlcNAc
# Outline: as §1
# [35] = biological target: Fuc(a1-2)[GalNAc(a1-3)]Gal(b1-4)GlcNAc(b1-3)Gal(b1-4)GlcNAc
# Outline: as §1
# [36] = biological target: Fuc(a1-2)[GalNAc(a1-3)]Gal(b1-4)GlcNAc(b1-3)Gal(b1-4)GlcNAc(b1-3)Gal(b1-4)GlcNAc
# Outline: as §1
# [37] = biological target: Fuc(a1-2)[GalNAc(a1-3)]Gal(b1-4)GlcNAc(b1-3)GalNAc
# Outline: as §1
# [38] = biological target: Fuc(a1-2)[GalNAc(a1-3)]Gal(b1-4)GlcNAc(b1-3)[Fuc(a1-2)[GalNAc(a1-3)]Gal(b1-4)GlcNAc(b1-6)]GalNAc
# Outline: as §1
# [39] = biological target: Fuc(a1-2)[GalNAc(a1-3)]Gal(b1-4)GlcNAc(b1-6)GalNAc
# Outline: as §1
# [40] = biological target: Fuc(a1-2)[GalNAc(a1-3)]Gal(b1-4)[Fuc(a1-3)]GlcNAc
# Outline: as §1
# [41] = biological target: Fuc(a1-2)[GalNAc(a1-3)]Gal(b1-4)[Fuc(a1-3)]GlcNAc(b1-3)GalNAc
# Outline: as §1
# [42] = biological target: Fuc(a1-2)[GalNAc(a1-4)]Gal(b1-4)GlcNAc
# Outline: as §1
# [43] = biological target: Fuc(a1-2)[GalNAc(b1-3)]Gal
# Outline: as §1
binder,measurement,setting,value
B1,glycan array binding signal (z-score),[1],0.296
same,glycan array binding signal (z-score),Fuc(a1-2)Gal6S(b1-4)Glc,0.012
same,glycan array binding signal (z-score),[2],-0.047
same,glycan array binding signal (z-score),Fuc(a1-2)[Gal(a1-3)]Gal,-0.175
same,glycan array binding signal (z-score),[3],-0.154
same,glycan array binding signal (z-score),[4],-0.109
same,glycan array binding signal (z-score),[5],-0.158
same,glycan array binding signal (z-score),[6],0.149
same,glycan array binding signal (z-score),[7],-0.154
same,glycan array binding signal (z-score),[8],0.014
same,glycan array binding signal (z-score),[9],-0.233
same,glycan array binding signal (z-score),[10],-0.011
same,glycan array binding signal (z-score),[11],-0.184
same,glycan array binding signal (z-score),[12],-0.094
same,glycan array binding signal (z-score),[13],-0.245
same,glycan array binding signal (z-score),[14],-0.155
same,glycan array binding signal (z-score),[15],0.003
same,glycan array binding signal (z-score),[16],0.705
same,glycan array binding signal (z-score),[17],-0.072
same,glycan array binding signal (z-score),[18],-0.122
same,glycan array binding signal (z-score),[19],-0.072
same,glycan array binding signal (z-score),[20],-0.141
same,glycan array binding signal (z-score),[21],-0.169
same,glycan array binding signal (z-score),[22],-0.172
same,glycan array binding signal (z-score),[23],-0.014
same,glycan array binding signal (z-score),[24],-0.194
same,glycan array binding signal (z-score),[25],-0.145
same,glycan array binding signal (z-score),[26],-0.276
same,glycan array binding signal (z-score),[27],-0.242
same,glycan array binding signal (z-score),[28],-0.154
same,glycan array binding signal (z-score),[29],-0.093
same,glycan array binding signal (z-score),[30],-0.168
same,glycan array binding signal (z-score),[31],-0.261
same,glycan array binding signal (z-score),[32],-0.172
same,glycan array binding signal (z-score),[33],0.124
same,glycan array binding signal (z-score),[34],-0.166
same,glycan array binding signal (z-score),[35],-0.198
same,glycan array binding signal (z-score),[36],-0.068
same,glycan array binding signal (z-score),[37],-0.169
same,glycan array binding signal (z-score),[38],-0.225
same,glycan array binding signal (z-score),[39],-0.196
same,glycan array binding signal (z-score),[40],-0.281
same,glycan array binding signal (z-score),[41],-0.174
same,glycan array binding signal (z-score),[42],-0.202
same,glycan array binding signal (z-score),[43],-0.168
